# About 21,000 targets were measured; listed, in parts, are those with the largest changes and a random draw of the rest.
# Compound: CC1Cc2ccccc2N1C(=O)C1CCCN(C1)C(=O)CCl (mixture of isomers) [TRIM25 ligand 11 (diastereomer mixture)]
# Test: probe-labelled cysteine peptide fold change vs DMSO (competition) (log2 fold change); higher = less target engagement (more negative = stronger competition)
# Conditions: THP-1, incubation time: 4 h
# 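Also: competitive chemoproteomic profiling in live THP-1 cells with an iodoacetamide desthiobiotin (IA-DTB) probe, comparing probe-labelled peptide intensities in compound-treated cells against DMSO-treated controls.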
# Sequence of UniProt Q99805 (Q99805 whole entry, looked up): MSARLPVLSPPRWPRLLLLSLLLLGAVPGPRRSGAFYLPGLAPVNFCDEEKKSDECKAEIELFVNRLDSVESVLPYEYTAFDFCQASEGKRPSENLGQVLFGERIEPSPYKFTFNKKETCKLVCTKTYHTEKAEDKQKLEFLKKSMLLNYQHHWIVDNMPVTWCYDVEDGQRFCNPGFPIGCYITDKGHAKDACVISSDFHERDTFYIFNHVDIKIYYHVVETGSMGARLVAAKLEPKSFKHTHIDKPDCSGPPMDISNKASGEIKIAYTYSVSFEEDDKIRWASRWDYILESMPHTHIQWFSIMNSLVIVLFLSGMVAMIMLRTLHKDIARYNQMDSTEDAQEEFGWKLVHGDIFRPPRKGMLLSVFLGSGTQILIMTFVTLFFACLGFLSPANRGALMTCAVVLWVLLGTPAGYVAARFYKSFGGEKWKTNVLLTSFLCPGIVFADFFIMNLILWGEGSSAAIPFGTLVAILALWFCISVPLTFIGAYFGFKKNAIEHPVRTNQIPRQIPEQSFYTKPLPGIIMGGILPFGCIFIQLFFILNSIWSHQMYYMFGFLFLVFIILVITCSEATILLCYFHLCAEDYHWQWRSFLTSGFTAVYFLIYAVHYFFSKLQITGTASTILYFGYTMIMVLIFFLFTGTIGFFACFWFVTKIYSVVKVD
# Sequence of UniProt Q9Y5B9 (Q9Y5B9 whole entry, looked up): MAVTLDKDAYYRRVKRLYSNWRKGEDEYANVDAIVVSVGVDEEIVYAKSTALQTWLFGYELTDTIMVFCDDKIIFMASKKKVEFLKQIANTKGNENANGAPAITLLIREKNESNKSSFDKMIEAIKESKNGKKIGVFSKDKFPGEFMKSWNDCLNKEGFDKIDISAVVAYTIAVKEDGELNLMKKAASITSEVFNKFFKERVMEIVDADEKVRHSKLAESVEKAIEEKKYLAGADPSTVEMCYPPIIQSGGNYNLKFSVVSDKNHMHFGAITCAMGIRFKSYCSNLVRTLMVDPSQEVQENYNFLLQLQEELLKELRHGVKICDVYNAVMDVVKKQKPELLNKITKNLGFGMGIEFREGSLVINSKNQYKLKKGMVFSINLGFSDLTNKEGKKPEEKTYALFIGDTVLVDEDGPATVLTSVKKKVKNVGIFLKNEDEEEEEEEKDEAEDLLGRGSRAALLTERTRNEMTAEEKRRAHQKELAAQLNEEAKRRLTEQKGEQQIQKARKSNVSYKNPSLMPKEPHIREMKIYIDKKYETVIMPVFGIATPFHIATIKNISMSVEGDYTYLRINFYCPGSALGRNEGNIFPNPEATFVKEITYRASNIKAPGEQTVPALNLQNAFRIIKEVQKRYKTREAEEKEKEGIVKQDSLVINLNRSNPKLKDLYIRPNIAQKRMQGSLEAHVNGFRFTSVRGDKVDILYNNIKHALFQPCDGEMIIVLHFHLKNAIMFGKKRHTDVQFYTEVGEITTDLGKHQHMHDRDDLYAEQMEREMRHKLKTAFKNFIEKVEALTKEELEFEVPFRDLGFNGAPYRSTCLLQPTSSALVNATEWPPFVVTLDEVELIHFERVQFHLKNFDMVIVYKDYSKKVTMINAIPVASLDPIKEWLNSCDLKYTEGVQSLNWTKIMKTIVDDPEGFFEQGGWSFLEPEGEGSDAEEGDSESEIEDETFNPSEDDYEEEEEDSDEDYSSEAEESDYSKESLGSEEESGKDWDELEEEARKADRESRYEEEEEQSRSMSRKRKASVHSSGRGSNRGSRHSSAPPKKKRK
Target,probe-labelled cysteine peptide fold change (10 µM),probe-labelled cysteine peptide fold change (50 µM)
TM9SF2_Q99805_250_HTHIDKPDCSGPPMDISNK (UniProt Q99805),-0.0327,-0.239
SUPT16H_Q9Y5B9_273_NHMHFGAITCAMGIR (UniProt Q9Y5B9),-0.0738,-0.0183
SUPT6H_Q7KZ85_960_EELLNALYCEFINR (UniProt Q7KZ85),0.253,0.263

# Reference: the supplement of paper PMC12067093, “Discovery and optimisation of a covalent ligand for TRIM25 and its application to targeted protein ubiquitination” (Chemical Science, 2025)
